These results are taken from publication PMC6919601, “Identification of Plasmodium dipeptidyl aminopeptidase allosteric inhibitors by high throughput screening” (PLoS ONE, 2019).

Screen size: about 110,000 compounds; about 230 (0.21%) showed an effect of 50% or more. This is one part of the list.
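Note: 30 min substrate incubation versus DMSO and 10 µM JCP410 controls.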

This assay deals with DPAP1 (Plasmodium falciparum, UniProt Q8IIJ9). Put plainly: primary screen, percent inhibition; read by cleavage of a fluorogenic dipeptide substrate; higher = more effect of the substance. Further details: species or system P. falciparum D10 trophozoite lysates; single well.
DPAP1, sequence (Q8IIJ9 whole entry, looked up): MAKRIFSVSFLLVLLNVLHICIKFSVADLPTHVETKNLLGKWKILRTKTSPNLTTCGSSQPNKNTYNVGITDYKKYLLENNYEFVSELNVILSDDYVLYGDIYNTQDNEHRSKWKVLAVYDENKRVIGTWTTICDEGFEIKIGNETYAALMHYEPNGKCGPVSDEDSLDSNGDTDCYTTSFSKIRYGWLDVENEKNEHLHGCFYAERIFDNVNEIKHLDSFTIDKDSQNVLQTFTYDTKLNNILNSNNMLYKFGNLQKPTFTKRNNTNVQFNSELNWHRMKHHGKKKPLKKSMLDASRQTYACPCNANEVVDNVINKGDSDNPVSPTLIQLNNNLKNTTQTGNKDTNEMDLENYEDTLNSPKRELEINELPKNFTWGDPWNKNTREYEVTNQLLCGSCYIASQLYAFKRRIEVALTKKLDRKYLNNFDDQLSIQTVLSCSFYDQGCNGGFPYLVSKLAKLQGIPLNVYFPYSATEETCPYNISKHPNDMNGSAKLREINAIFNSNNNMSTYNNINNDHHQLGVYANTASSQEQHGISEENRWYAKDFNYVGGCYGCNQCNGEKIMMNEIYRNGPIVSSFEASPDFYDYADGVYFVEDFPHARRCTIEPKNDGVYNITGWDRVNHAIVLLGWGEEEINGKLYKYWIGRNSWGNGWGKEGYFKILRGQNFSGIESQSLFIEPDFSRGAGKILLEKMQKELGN
With `CCN1C(=O)C(O)(CC(=O)c2cccc(N)c2)c2ccccc21` (centres unmarked), the “% Inhibition @ 10 uM” value is -5.34%.

As for `O=C(NC1CCCCC1)N1CCC2(CC1)OCCO2`, the “% Inhibition @ 10 uM” value was -0.551%.

Regarding `CC1CCc2c(sc(NC(=O)COc3ccccc3)c2C#N)C1` (centres unmarked), the “% Inhibition @ 10 uM” value is listed as -2.89%.

Turning to `O=C1C=C(NCc2ccc(Cl)cc2Cl)C2(CCCCC2)O1`, the “% Inhibition @ 10 uM” value amounted to 1.67%.

For the molecule `COc1ccc(C2C(C#N)=C(N)Oc3cc(N)ccc32)cc1OC` (centres unmarked), the “% Inhibition @ 10 uM” value is recorded as -0.41%.

For `CC(C)C[C@H](NC(=O)c1ccc(N2CCOCC2)cc1)C(=O)NC(C#N)C#N`, the “% Inhibition @ 10 uM” value was -1.61%.

Turning to `COc1ccccc1/C=C1\N=C(c2ccccc2OC)OC1=O`, the “% Inhibition @ 10 uM” value worked out at 11.2%.

Take `CCN(C1CCCCC1)S(=O)(=O)c1ccc(S(=O)(=O)N2CCN(CCC#N)CC2)cc1`: the “% Inhibition @ 10 uM” value is given as -0.0735%.

Consider `COCC(=O)Nc1cccc(C)c1C`, for which the “% Inhibition @ 10 uM” value amounted to 0.634%.

Regarding `COc1cc(OC)cc(C(=O)Nc2ccc(S(=O)(=O)Nc3cccc(Cl)c3)cc2)c1`, the “% Inhibition @ 10 uM” value amounted to 4.05%.

`CCOc1ccc(CCNC(=O)CCc2nnc3ccc(N4CCN(C)CC4)nn23)cc1OCC`: the “% Inhibition @ 10 uM” value is on record as -6.16%.

On to `Cc1oc(-c2ccc(C(=O)NCc3cccnc3)cc2)nc1CS(=O)c1ccccc1` (centres unmarked), for which the “% Inhibition @ 10 uM” value is -6.7%.

With `CCN(CC)CCN(C)Cc1ccc(F)cc1`, the “% Inhibition @ 10 uM” value worked out at 3.68%.

Consider `COCCCNC(=O)Cn1cc(C(=O)c2ccc(F)cc2)c(=O)c2ccc(C)nc21`, for which the “% Inhibition @ 10 uM” value was 2.86%.

`Cc1nc(Oc2ccccc2)cc(-n2nc(C)c(C#N)c2N)n1`: the “% Inhibition @ 10 uM” value is reported as -2.77%.

Turning to `NC(=O)C(c1ccccc1)C(c1ccccc1)c1ccccc1` (centres unmarked), the “% Inhibition @ 10 uM” value is on record as -2.56%.

As for `COc1ccc(C(CC(=O)O)NC(=O)c2sc3ccccc3c2Cl)cc1` (centres unmarked), the “% Inhibition @ 10 uM” value was 4.32%.

With `COc1ccc(S(=O)(=O)Nc2ccc(S(=O)(=O)Nc3cccc4ccccc34)cc2)cc1C`, the “% Inhibition @ 10 uM” value came out at 19.2%.

Take `c1c2c(cc3nsnc13)OCCO2`: the “% Inhibition @ 10 uM” value was -5.47%.

On to `Cc1nn(CCCC(=O)NCc2cccnc2)c(=O)c2c1sc1ccccc12`, for which the “% Inhibition @ 10 uM” value is -5.95%.

For `Cc1ccccc1NC(=O)C1C(=O)N(C)c2ccccc21` (centres unmarked), the “% Inhibition @ 10 uM” value was 0.924%.

With `CCOc1ccccc1C(=O)N(Cc1ccco1)Cc1ccc(C)o1`, the “% Inhibition @ 10 uM” value was determined as 2.29%.

For `O=C1C=C(S(=O)(=O)O)c2ccccc2C1=O`, the “% Inhibition @ 10 uM” value was -6.2%.

Turning to `CN1CCN(CC(=O)N2c3ccccc3C=Cc3ccccc32)CC1`, the “% Inhibition @ 10 uM” value is listed as -6.36%.

`CC(=O)Nc1ccc(NC(=O)CCc2ccccc2)cc1`: the “% Inhibition @ 10 uM” value amounted to 0.907%.

On to `CCN(CC)CCCOc1cc(C)cc(C)c1C`, for which the “% Inhibition @ 10 uM” value was -3.94%.

As to `O=CN1CCN(Cc2ccccc2Cl)CC1`, the “% Inhibition @ 10 uM” value is given as -2.95%.

As for `Cc1ccc(Cl)cc1NC(=O)COc1ccc(S(=O)(=O)NC2CCCCC2)cc1`, the “% Inhibition @ 10 uM” value came to 8.09%.

In the case of `CN(C(=O)c1cc2c(-c3ccccc3F)nn(C)c2s1)C1CCCCC1`, the “% Inhibition @ 10 uM” value is given as -9.06%.

Regarding `Cc1cc(NC(=O)C2(c3ccccc3)CCCC2)no1`, the “% Inhibition @ 10 uM” value is -2.05%.

For the molecule `CC(=O)C1(C)OC(N)=C(C#N)C(c2ccccc2)C1(C#N)C#N` (centres unmarked), the “% Inhibition @ 10 uM” value was found to be 1.76%.

Take `Cc1cc(C)n(CCc2nc3c4ccccc4nc(NCCc4ccccc4)n3n2)n1`: the “% Inhibition @ 10 uM” value is 2.6%.

On to `COc1ccc(N(CC(=O)Nc2ccc3ccccc3c2)S(=O)(=O)c2ccccc2)c(OC)c1`, for which the “% Inhibition @ 10 uM” value was determined as 5.9%.

Take `O=S(=O)(c1cccc2nsnc12)N1CCN(Cc2ccc3c(c2)OCO3)CC1`: the “% Inhibition @ 10 uM” value turned out to be 10.1%.

For the molecule `CS(=O)(=O)N(CC(=O)NCc1ccccc1Cl)C1CCCCC1`, the “% Inhibition @ 10 uM” value is -0.545%.

For the molecule `COc1cc2nc(C)[nH]c2cc1OC`, the “% Inhibition @ 10 uM” value is recorded as 1.13%.

`Cc1ccc(Oc2ccc(NC(=O)CCC(=O)O)cc2)cc1`: the “% Inhibition @ 10 uM” value is recorded as -3.5%.

For `Cc1ccc(Nc2nc(Cl)nc(NC(C)(C)C)n2)cc1`, the “% Inhibition @ 10 uM” value was -0.744%.

`Cc1cc(C)c(-c2c(NCc3ccco3)c(=O)c2=O)cc1C`: the “% Inhibition @ 10 uM” value is -9.09%.

Turning to `O=C(c1ccc(F)cc1)N1CCN(Cc2ccccc2Br)CC1`, the “% Inhibition @ 10 uM” value is recorded as 3.95%.

In the case of `CCOc1ccc(/C=C(\C#N)c2nc(-c3ccc(OC)cc3)cs2)cc1`, the “% Inhibition @ 10 uM” value is -3.03%.

Regarding `Cc1oc(-c2ccc(C(=O)N3CCN(c4ncccn4)CC3)cc2)nc1CSc1ccccc1`, the “% Inhibition @ 10 uM” value was determined as 5.71%.

For `Cc1ccc(CCN2CC(C(=O)N3CCC(Cc4ccccc4)CC3)CC2=O)cc1` (centres unmarked), the “% Inhibition @ 10 uM” value is reported as 1.62%.

Take `Cc1ccc(Cl)cc1-n1c(SCC(=O)NCc2ccco2)nc2nnc(C)c-2c1N`: the “% Inhibition @ 10 uM” value is listed as -0.458%.

Regarding `CSc1nccc(Nc2ccccc2)c1C#N`, the “% Inhibition @ 10 uM” value is -0.712%.

`CCC(=O)c1cn(CC(=O)NCc2cccs2)c2ccccc12`: the “% Inhibition @ 10 uM” value is given as 2.1%.

Take `Nc1ncnc2[nH]c(SCc3nc4ccccc4[nH]3)nc12`: the “% Inhibition @ 10 uM” value was 1.25%.

For `Cc1nc(N)sc1Cc1ccc(Oc2nc3c(c(=O)n(C)c(=O)n3C)n2C)cc1`, the “% Inhibition @ 10 uM” value turned out to be 8.64%.

`COc1cccc(-c2nn(C)c3sc(C(=O)NCCN(C)C)cc23)c1`: the “% Inhibition @ 10 uM” value is given as -0.499%.

For the molecule `CCCC(=O)NCCc1nc2ccccc2n1Cc1cc(C)ccc1C`, the “% Inhibition @ 10 uM” value is given as -2.01%.

In the case of `CC1(C)CC2(CCO1)Cc1ccccc1C2=O` (centres unmarked), the “% Inhibition @ 10 uM” value is -6.09%.

For the molecule `Cc1[nH]c2ccccc2c1CCNC(=O)C1CCCCC1`, the “% Inhibition @ 10 uM” value was -1.52%.

As for `Cc1noc(/C=C/c2cccs2)c1S(=O)(=O)N1CCCC(C(=O)Nc2cccnc2)C1` (centres unmarked), the “% Inhibition @ 10 uM” value was 0.0579%.

In the case of `Cc1ccc(-n2nc3c(c2NC(=O)c2ccco2)CS(=O)(=O)C3)cc1`, the “% Inhibition @ 10 uM” value was determined as 13.2%.

Turning to `Cc1c(Br)c(C(F)(F)F)nn1CC(=O)N(C)C1CCCCC1`, the “% Inhibition @ 10 uM” value is -5.13%.

Turning to `CCOc1ccc(-n2cccc2/C=C2\C(=N)N3N=C(CC)SC3=NC2=O)cc1`, the “% Inhibition @ 10 uM” value is recorded as -3.35%.

For `O=C1CC(N2CCCCC2)C(=O)N1c1ccc(S(=O)(=O)N2CCOCC2)cc1` (centres unmarked), the “% Inhibition @ 10 uM” value amounted to 5.15%.

On to `COc1cc(C=C2C(=O)N(C)C(=S)N(C)C2=O)ccc1O`, for which the “% Inhibition @ 10 uM” value is reported as -2.44%.

Consider `CCOC(=O)c1c(C)nc(Nc2nc3ccccc3o2)nc1CSc1nnnn1-c1ccccc1`, for which the “% Inhibition @ 10 uM” value was 1.72%.

Consider `O=C(Nc1cccc(O)c1)c1cnn2c1NC(c1cccs1)CC2C(F)(F)F` (centres unmarked), for which the “% Inhibition @ 10 uM” value came to 0.385%.

Consider `Cc1ccc(-c2csc(NC(=O)c3ccc(F)cc3)n2)cc1`, for which the “% Inhibition @ 10 uM” value was -5.7%.

As for `Cc1ccccc1N(CC(=O)Nc1ccccc1Br)S(=O)(=O)c1ccccc1`, the “% Inhibition @ 10 uM” value was 4.77%.

In the case of `C=C(C)CN(CC)Cc1ccccc1[N+](=O)[O-]`, the “% Inhibition @ 10 uM” value is on record as -0.0494%.

For the molecule `Cc1nn(-c2ccccc2)c2sc(C(=O)NCc3ccco3)cc12`, the “% Inhibition @ 10 uM” value is -0.436%.

For `COc1cccc(S(=O)(=O)NCc2ccccn2)c1`, the “% Inhibition @ 10 uM” value was -8.23%.
